Values marked as one replicate rest on one cluster of the flow cell; about a third of the high ones do not repeat.
System: ATP
Assay: switch fluorescence ratio, 500 uM ATP over buffer (Cy3 cluster intensity, sum of 5 cycles each) (fold (ratio)); higher = stronger signal-on switching upon ATP binding; sequences stand for … in TCGTCGGCAGCGTCAGATGTGTATAAGAGACAGTTTTTTTTTTTTTTTTTTTTTTTTT…TC
Details: aptamer strand: ATP DNA aptamer (quencher-CACCTGGGGGAGTATTGCGGAGGAAGG + anchor), 100 nM annealed; ATP concentration: 500 uM; one replicate
Method in brief: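 Per cluster, summed Cy3 intensity from the target cycles was divided by that from the buffer cycles to give the fluorescence ratio, then averaged per switch-domain sequence. Clusters outside 100-1000 RFU were excluded. The Cy3-labelled switching-strand clusters, on a modified Illumina MiSeq flow-cell, were annealed to 100 nM quencher-labelled ATP aptamer and imaged in selection buffer, then after 15 min with 500 uM ATP at 22 °C, for five cycles with NaOH stripping and re-annealing between them.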
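Also: ATP exposure 15 min at 22 °C before imaging.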

Sequence | switch fluorescence ratio
TTCCCTCCGA | 2.93
GCTCAGTGTG | 1.07
CGCCTGAAGT | 0.996
CCATTTCTCG | 1
GCAAGTTGAG | 1.01
CGTCAATTA | 1.17
GGTCGTTTA | 0.98
TCGGAAAATT | 0.953
AGGAAGCGGC | 0.997
AGGACACACG | 1.15
GTCAATGAGT | 0.974
CCGGATACCG | 0.998
GGAAAACCAT | 1
CTGCGTACAC | 1.92
AAGCTATTCG | 0.977
GCGACTTTTA | 0.975
TACCTCAATG | 1.06
CAAATAAAGC | 0.962
TTTGAGCC | 1.11
AGGATGGAA | 0.952
CGGGTTCTCC | 0.985
TCTGGGACC | 0.989
TAATACTGTG | 0.995

Sequence | switch fluorescence ratio
GACGGGTAAC | 1.03
ATGTAAAAGC | 1.16
CAACCTTTCC | 2.96
GATTCTTAGT | 0.973
GCGACTTTCT | 0.971
TAACCAGGCC | 1.05
ATCTGCCTA | 0.996
CACCGTTTGT | 1.02
CGCACATGTA | 1.13
TCAGCCGTCG | 1.02
TCGGAGGGAC | 1.04
TTACTATTGA | 1
CTATGGTCTA | 1.02
CCGTGCAGCC | 2.86
TCACTGGCAA | 1.77
GCTACAGGCA | 1.03
AAACCTTCGG | 1.17
ATCTGAGCGA | 1.02
CTAGGAATTT | 0.97
CCGGGAAAT | 0.995
CACTCGGGTA | 1.02
CATAGCCGGC | 1.02
GGGATTGAAC | 1.03

Sequence | switch fluorescence ratio
AGAGGCATGG | 1.02
ACCGGCGGT | 1.01
TTAAATTCGG | 1
CGGATTACTT | 1.01
GAAGGTGTAT | 1.14
ACGCTGGGGC | 1.19
TGGCGGTATT | 1.01
ATCATGGGCT | 0.983
GTTATAAACG | 0.968
AGTTGCTTGC | 0.94
TGGATTCGAC | 0.955
GGTATAGGGC | 0.998
CTTGTGCTCG | 0.979
GCCCTATGC | 0.999
ACGACGTGAG | 0.957
TATAGGCCA | 1.01
AAAAGCCTGG | 1.05
TTTGTACCTT | 1.15
CCAGGTTTGA | 1.09
GGGAAACCTT | 1.66
CACAAAGTGA | 0.972
TTCTTGACAG | 1.01
AAGCATTTAT | 0.95

Sequence | switch fluorescence ratio
TGAATTGTGA | 0.965
TGATATTCTT | 0.952
ATTACGTGTT | 0.998
TGGCGTTAGT | 1.07
AACGATGCGG | 1.03
CTTGGTAGTT | 0.918
GATACATTG | 0.987
TATATTGATT | 0.968
AATCTAGAAT | 1.03
TATTGATGTA | 0.938
ATGCTTGATG | 0.997
ACATCGTCAC | 1.05
GTAAGGACTT | 1.03
CGCATTAGGC | 1.59
AAACTAGACG | 1.07
AAAAGTTTAG | 1.01
AACTGATGCG | 0.992
TACCTGTGGG | 1.42
TAGCCTTCGA | 1.07
CGAGTTTAAA | 1.02
AGAGAAATTT | 1.01
TCTGTTGCGG | 0.996
TTGGTATCAT | 0.942

Sequence | switch fluorescence ratio
GACCAAAAGG | 0.996
ACATAGAGT | 1
ATCGAGGGCA | 1.01
TCGGCACCTG | 0.975
ATTTATAGTG | 1.01
AGCGGGAAGT | 1.08
ACGGCCCCGC | 1.16
TCAGTGTGGG | 0.998
CGGTTCAACA | 0.994
CTGTGGGCGA | 0.995
ACTCGACAAG | 1.14
GCCCACTCTC | 0.971
AATCTTAGGT | 1.13
CAGTAGATTC | 1.01
CCCAAAAACA | 1.19
TGCGCCATAG | 1.48
AATGGTGTGA | 1.01
AAGATGAGGA | 0.962
CTGCAGGCTG | 1.01
AGTAGTTTTT | 1.01
AGTTCCGGGG | 1.02
TGACATGAGA | 0.995
TGAGTCACGA | 1

Sequence | switch fluorescence ratio
TTCAACGCAC | 2.33
TATTTCGACC | 1.05
CGGATTGTGA | 0.999
AATGAAATAA | 0.976
CGGCACTAGG | 1.04
TCATTGAGCA | 1.01
TCGCACGGGA | 1.06
ATCCTTCGG | 1.03
CTTTAAAGTC | 1.03
CGGTGCACGA | 1
AGAAAGG | 0.977
ATGCGCCGCT | 1
AGAGAGCTCG | 0.98
CGGAGGTCAT | 0.967
GAGGTTGCGA | 0.987
TTAGCGTGAA | 1.09
CTCTCCAGCT | 1.57
GATAAAGGGA | 1.04
ATCCAGTCCT | 1.04
TGCTAATATT | 0.972
ACAAGTTGG | 0.973
ATTATCCCCA | 1
CTACTCGCTC | 1.17

Sequence | switch fluorescence ratio
ACATGGTGAA | 0.948
CGTACGGTTA | 1.07
CGGTATAGGG | 1.02
TTTGACCGGG | 1.02
AGTATATCCA | 0.983
ATCAAAGTTC | 0.999
ATATCTAGCT | 1.01
GCGGTTGGCC | 1.06
AGTAGCTCG | 1.1
TTTAGTCAC | 1.02
GCATCTCATT | 1
CAGGTTGGTA | 1.01
ACTGTAAGTT | 0.992
GAGATGACCA | 1.08
AGGTTATGAT | 1.01
TTCAGTCTAA | 1.02
CACGCTTCAG | 0.972
AGGGAGTGAA | 0.988
TGTCCGACCA | 1.18
